Test results taken from PubChem BioAssay AID1030 (National Center for Advancing Translational Sciences (NCATS), 2008).
Out of some 220,000 compounds screened, about 16,000 (7.3%) were called active. This list was built around the results that the source calls inconclusive (neither active nor inactive); the mix of calls is not that of the screen. The call rests on the fitted dose curve; in most records, active means well fitted inhibition curve with a large enough effect (not every such curve was filed as active); inconclusive means small, poorly fitted or top-dose-only effect, or another doubt; inactive means no such curve, though single readings can be large or run the other way. No potency is given beside an inconclusive call; the fits are too rough.

target: Aldehyde dehydrogenase 1A1 (Homo sapiens) (UniProt P00352); assay: qHTS Assay for Inhibitors of Aldehyde Dehydrogenase 1 (ALDH1A1); settings: Purified ALDH1A1, NADH fluorescence, propionaldehyde substrate; series mostly up to 75.3 µM
Potency means the concentration at half of the fitted maximal effect; tags describe the fitted curve by direction and shape.

Chain of UniProt P00352 (P00352 whole entry, looked up): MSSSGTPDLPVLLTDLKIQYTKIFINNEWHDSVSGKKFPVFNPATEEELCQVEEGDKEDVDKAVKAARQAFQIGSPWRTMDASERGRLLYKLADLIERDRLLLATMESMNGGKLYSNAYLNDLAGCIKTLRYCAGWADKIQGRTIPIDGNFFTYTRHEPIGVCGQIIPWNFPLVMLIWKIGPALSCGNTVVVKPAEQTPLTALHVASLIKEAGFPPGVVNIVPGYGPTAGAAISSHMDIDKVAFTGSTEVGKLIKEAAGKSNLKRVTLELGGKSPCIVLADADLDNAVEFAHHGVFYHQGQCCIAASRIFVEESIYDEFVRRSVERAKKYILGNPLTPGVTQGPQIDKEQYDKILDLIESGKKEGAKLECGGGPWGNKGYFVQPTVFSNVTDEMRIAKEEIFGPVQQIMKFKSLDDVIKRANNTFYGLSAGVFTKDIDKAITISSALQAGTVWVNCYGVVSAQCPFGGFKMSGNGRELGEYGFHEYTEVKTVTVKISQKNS

Structure (SMILES) | Potency
COc1ccc(-c2ncccc2O)cc1 | inconclusive [inhibitor, partial curve]
Cc1ccc(NC(=O)CSc2nnc(CNC(=O)c3ccccc3F)o2)cc1 | inconclusive [inhibitor, single point]
CS(=O)(=O)NN1C(=O)c2ccccc2NC1c1ccccc1 (stereo unspecified) | inconclusive [inhibitor, partial curve]
COc1ccc(C(C#N)N2CCCCC2)cc1OC (stereo unspecified) | inconclusive [inhibitor, full curve]
CCn1c(=N)c(C(=O)OC)cc2c(=O)n3ccccc3nc21 | inconclusive [inhibitor, partial curve]
COc1ccccc1NC(=O)CSc1nc2c(sc3ccccc32)c(=O)n1CCN(C)C | inconclusive [inhibitor, partial curve]
O=C(Nc1ccc(S(=O)(=O)N2CCCCC2)cc1)c1ccccc1Cl | inactive
CC(=O)OCCC(C)CCC=C(C)C (stereo unspecified) | inactive
CCC1=NN2C(=N)/C(=C\c3cccn3-c3cccc(Cl)c3)C(=O)N=C2S1 | active: 1.78 µM
c1ccc(C2c3[nH]c4ccccc4c3CCN2Cc2cccn2-c2cccnc2)nc1 (stereo unspecified) | inconclusive [inhibitor, single point]
CC1CCc2c(sc(NC(=O)COC(=O)c3ccc(O)cc3)c2C#N)C1 (stereo unspecified) | inconclusive [inhibitor, single point]
CC(C)(C)NC(=O)c1cc(C(C)(C)C)c(O)c(C(C)(C)C)c1 | inactive
CCn1cc(C(=O)NCc2cccs2)c(=O)c2ccc(C)nc21 | inconclusive [inhibitor, full curve]
Cc1onc(-c2ccccc2)c1CNS(=O)(=O)c1ccc(F)cc1F | inconclusive [inhibitor, partial curve]
C[C@@H](CN1C2=NC[C@H](Cc3ccccc3)N2C[C@H]1Cc1ccc(O)cc1)NC(=O)CCC1CCCCC1 | inconclusive [inhibitor, partial curve]
CC(C)CCOc1cccc(OCC(=O)NC2CCS(=O)(=O)C2)c1 (stereo unspecified) | inactive
CCN(CC)S(=O)(=O)c1ccc(-c2nnc(SCc3nnc(-c4ccc(C)cc4)o3)n2CC)cc1 | inconclusive [inhibitor, partial curve]
N[C@H](Cc1c[nH]c2ccccc12)C(=O)O | inactive
Nc1cc(N)nc(SCc2ccccc2)n1 | inactive
O=C(O)C1CC=CCC1C(=O)N1CCN(c2nc(-c3ccccc3)c3ccccc3n2)CC1 (stereo unspecified) | inconclusive [inhibitor, single point]
CCC(=O)N1CCN(c2ccc(OC)cc2[N+](=O)[O-])CC1 | inactive
COc1ccccc1NC(=O)CSc1nc(C)c2c(c1C#N)CCCC2 | inactive
O=C(Nc1ccc2c(c1)CCC2)C1CCCN(c2ncccn2)C1 (stereo unspecified) | inactive
CCC/C=C(\CCC)C(NS(C)(=O)=O)c1ccccc1 (stereo unspecified) | inactive
O=S(=O)(Nc1cccc2ccccc12)N1CCCC1 | inconclusive [inhibitor, partial curve]
O=C(Nc1ccc2c(c1)OCCO2)c1ccc(Cl)c([N+](=O)[O-])c1 | inconclusive [inhibitor, single point]

Structure (SMILES) | Potency
COc1ccccc1N1CCN(c2nc(N)c(C#N)c(CC#N)c2C#N)CC1 | inconclusive [inhibitor, full curve]
CC1(C)Cc2c(cnn2-c2ccccc2)-c2c1c1ccccc1n2CC(O)CCl (stereo unspecified) | inconclusive [inhibitor, partial curve]
CCC(Sc1nc2cc3c(cc2c(=O)n1Cc1ccco1)OCO3)C(=O)Nc1ccccc1OC (stereo unspecified) | active: 1.12 µM
CCN(CC)c1ccc(/C=N/NC(=O)c2ccc3nc[nH]c3c2)cc1 | inconclusive [inhibitor, partial curve]
O=C(NN1CCOCC1)c1ccc(Br)s1 | inactive
CCOc1ccc(NS(=O)(=O)c2ccc(OC)c(C)c2)cc1 | inconclusive [inhibitor, single point]
COc1cc(OC)c(C(=O)Nc2ccc(N(C)C)cc2)cc1OC | inconclusive [inhibitor, single point]
COc1cc(SC)ccc1C(=O)Nc1ccc2c(c1)CCN2S(C)(=O)=O | inconclusive [inhibitor, single point]
CCNC(=S)N=Nc1c(O)n(Cc2ccc(Cl)cc2)c2ccccc12 | active: 3.55 µM
O=C(CNc1ccccc1)N/N=C/c1c[nH]c2ccccc12 | inactive
Cc1ccccc1-n1c(=O)c2ccccc2n2nnnc12 | inconclusive [inhibitor, partial curve]
CCOc1cccc(OCCCCn2ccnc2)c1 | inconclusive [inhibitor, single point]
O=C(CSc1nnc(-c2ccccc2Cl)n1Cc1ccco1)Nc1ccc2c(c1)OCCO2 | active: 10 µM
Cc1cccc(C2=NN(c3ccc(Br)cc3)[C@@H](C(=O)N3CCOC3=O)[C@@H]2C)c1 | inconclusive [inhibitor, partial curve]
COc1ccc(CN2CCNC(=O)C2CC(=O)N(C)Cc2ccon2)cc1OC (stereo unspecified) | inconclusive [inhibitor, single point]
CN1CCN(Cc2cn(C)nc2-c2ccccc2F)CC1c1ccccc1 (stereo unspecified) | inactive
Cc1ccc(-n2cccc2/C=C2/C(=N)N3C(=NC2=O)SN=C3S(C)(=O)=O)cc1Cl | active: 17.8 µM
O=C(Nc1ccc(NC(=O)C2CC2)nc1)c1cccs1 | inactive
O=C1OCCN1C(=O)[C@H]1[C@H](c2ccc(Cl)cc2)C(c2ccc(F)cc2)=NN1c1ccccc1 | inconclusive [inhibitor, partial curve]
CCCn1c(NCc2cc(OC)ccc2OC)nc2ccccc21 | inconclusive [inhibitor, single point]
Cc1ccc2[nH]c(=O)c(CN(CC3CCCO3)C(=S)Nc3ccccc3)cc2c1 (stereo unspecified) | active: 14.1 µM
O=C(C(Sc1ccccc1)c1ccccc1)N1CCOCC1 (stereo unspecified) | inactive
COc1ccc2c(C=O)cn(C)c2c1 | active: 2.24 µM
Cc1c(Cl)cccc1NC(=O)CNc1ccccc1F | active: 10 µM
COc1cccc(-c2nc(N3CCN(C)CC3)c3ccccc3n2)c1 | inactive
Cc1ccc2c(c1)c(N=O)c(O)n2Cc1ccc(Cl)cc1 | inactive

Structure (SMILES) | Potency
CNC1=C(Br)C(=O)c2ccncc2C1=O | inactive
COc1ccc(OC)c(-n2cc3c(=O)n(C)c(=O)n(C)c3c2)c1 | inconclusive [inhibitor, single point]
C=CC(C)(C)c1[nH]c2ccccc2c1C1=C(O)C(=O)C(c2c[nH]c3c(CC=C(C)C)cccc23)=C(O)C1=O | inconclusive [inhibitor, single point]
CN(C)c1ccc(-c2cc(-n3ccnc3)ncn2)cc1 | inconclusive [inhibitor, partial curve]
Cc1nnc(NC(=O)C2CCN(c3nnnn3-c3ccccc3)CC2)s1 | active: 20 µM
CCOc1cccc2c1OC1(CCCCC1)N1N=C(c3cccnc3)CC21 (stereo unspecified) | inconclusive [inhibitor, single point]
Oc1ccc2ccccc2c1/C=N/c1nccs1 | inconclusive [inhibitor, single point]
O=C(CCCSc1nnnn1-c1ccccc1)c1ccc(F)cc1 | active: 1.26 µM
O=c1c2c3c(sc2nc2n1CCCCC2)CCCCC3 | inconclusive [inhibitor, single point]
COc1ccc(C2CC(c3cccs3)=NN2C(=O)COC(=O)c2cncc(Br)c2)cc1OC (stereo unspecified) | inconclusive [inhibitor, single point]
CN(C)c1ccc(/C=C/C(=O)c2ccc3c(c2)OCCO3)cc1[N+](=O)[O-] | inconclusive [inhibitor, partial curve]
Cc1cc(Cl)ccc1Oc1ncnc2oc(-c3ccccc3)cc12 | inconclusive [inhibitor, partial curve]
O=C(Nc1cccc([N+](=O)[O-])c1)Nc1cccc([N+](=O)[O-])c1 | inactive
CCOC(=O)c1ccoc1CSCc1ccc(C(=O)OC)o1 | active: 25.1 µM
N#CCCn1c(=O)cnc2cnc(N3CCNCC3)nc21 | inconclusive [inhibitor, partial curve]
CCCCCCNC(=O)Nc1ccc(S(=O)(=O)Nc2ccc(CCNC[C@H](O)COc3ccc(O)cc3)cc2)cc1 | inactive
COc1ccc(S(=O)(=O)N2CCCC2C(=O)Nc2ccc(C(C)=O)cc2)cc1 (stereo unspecified) | inconclusive [inhibitor, single point]
CCCC(C)NC(=O)c1ccc(C2SCC(=O)N2Cc2ccco2)cc1 (stereo unspecified) | inconclusive [inhibitor, single point]
N#Cc1c(SCC(N)=O)nsc1SCc1ccccc1Cl | inconclusive [inhibitor, partial curve]
O=C(c1ccccc1)N1CN2CN(C(=O)c3ccccc3)CC([N+](=O)[O-])(C2)C1 | inactive
CN(C)c1cc(N/N=C\c2ccccc2)nc(N(C)C)n1 | inactive
COc1ccc(NC(=O)CSc2nnc(N)s2)cc1 | inconclusive [inhibitor, partial curve]
COc1ccccc1-n1cnc2cc(NCc3ccco3)ccc21 | inconclusive [inhibitor, single point]
O=C(COC(=O)Cc1ccsc1)Nc1ccc(S(=O)(=O)N2CCOCC2)cc1 | inactive
